# The other results are listed elsewhere or left out. For part of these data: At the low end of the ranking the order means little. For part of these data: The protein was read in a cell extract, so binding may be indirect.
# Legend:
# Details in all cases: 20 mM HEPES pH 7.9, 100 mM NaCl, 1 mM DTT, 0.2 mg/mL BSA, 0.02% Triton X-100, 2% milk, 0.4 mg/mL salmon testes DNA; 1 h; temperature not stated; high values mean tight binding; double strand, one strand shown; sequences stand for … in GCCTAGCAC…GTGCTAGGTCTTGATTCGCTTGACGCTGCTG
# PU.1 (IVT) = PU.1 (IVT) (UniProt P17947); assay: protein-binding microarray (PBM)
# [1] = target: PU.1 (endogenous, THP-1 nuclear extract) (UniProt P17947); assay: nuclear extract protein-binding microarray (nextPBM)
# [2] = target: T1, FLI1 (endogenous, THP-1 nuclear extract) (UniProt Q01543); assay: as above
# T1 sequence: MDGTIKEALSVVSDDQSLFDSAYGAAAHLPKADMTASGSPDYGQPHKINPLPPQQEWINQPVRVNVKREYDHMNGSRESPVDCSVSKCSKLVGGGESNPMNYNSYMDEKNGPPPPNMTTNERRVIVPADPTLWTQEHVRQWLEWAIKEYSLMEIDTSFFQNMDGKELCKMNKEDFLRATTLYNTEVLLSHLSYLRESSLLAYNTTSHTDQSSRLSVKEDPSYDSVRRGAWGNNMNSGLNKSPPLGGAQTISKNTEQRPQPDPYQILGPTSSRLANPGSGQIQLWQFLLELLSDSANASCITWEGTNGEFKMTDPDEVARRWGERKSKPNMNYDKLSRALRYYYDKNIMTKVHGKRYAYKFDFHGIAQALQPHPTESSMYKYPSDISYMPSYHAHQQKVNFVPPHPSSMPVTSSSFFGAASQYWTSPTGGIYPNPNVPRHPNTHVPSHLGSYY
Sequence,binding signal (PU.1 (IVT)),binding signal [1],binding signal [2]
CCAGGAGGGAAGTGCTTGGT,2.67 z-score,2.58 z-score,1.26 z-score
AAAATAGGGAAGTGCCTTTT,7.65 z-score,7.1 z-score,2.96 z-score
AAATTGAGGAAATGCAGAGA,3.63 z-score,3.74 z-score,1.85 z-score
GAAAACAGGAAGTCGCATAG,6.79 z-score,6.99 z-score,4.84 z-score
GAAGTAGGGAAGTGGTTTAA,4 z-score,3.31 z-score,1.24 z-score
AAAAAAAGGAAGTCTTTCAT,6.3 z-score,5.58 z-score,2.75 z-score
AAAAAGAGGAAGTCAAACAA,8.71 z-score,7.17 z-score,4.29 z-score
GAGGTGGGGAAGTGCAACAT,2.93 z-score,2.7 z-score,1.3 z-score
ATAGAGAGGAAGTGATCCTG,4.66 z-score,4.63 z-score,2.95 z-score
GAAATGAGGAAATGCTGAAG,4.47 z-score,4.97 z-score,1.84 z-score
AGATACAGGAAGTGAAAAAG,5.04 z-score,5 z-score,4.53 z-score
GAGGTGAGGAAGTGGGAGGC,2.83 z-score,2.74 z-score,1.71 z-score
GAGGAGAGGAAGTGGGGGAG,3.17 z-score,3.68 z-score,2.75 z-score
AGAAAGAGGAAATGTGTTTG,4.86 z-score,4.94 z-score,2.49 z-score
GAGAAGAGGAAGTGCCTTTC,6.91 z-score,6.54 z-score,3.64 z-score
GGAAGGAGGAAGTAAAAGTT,6.17 z-score,6.34 z-score,2.97 z-score
GAAAAAAGGAAGTGAGAACT,6.26 z-score,6.41 z-score,3.09 z-score
ATAAAGAGGAAGTGTCAGGG,6.78 z-score,7.07 z-score,3.35 z-score
GATAAGGGGAAGTGAGTCAT,5.78 z-score,6.35 z-score,2.46 z-score

Sequence,binding signal (PU.1 (IVT)),binding signal [1],binding signal [2]
GAAAACAGGACGTCCCATAG,0.758 z-score,0.451 z-score,0.961 z-score
GATAAGAGGAAGTCCTCTAT,5.51 z-score,6.55 z-score,2.65 z-score
GGAAAGAGGAAATGGGGAAT,4.72 z-score,5.01 z-score,2.98 z-score
AAAAATAGGAAGTGCTGGAG,5.76 z-score,5.85 z-score,3.13 z-score
AGAAGAGGGAAGTGGTTCAA,4.9 z-score,4.75 z-score,1.9 z-score
TTAATCAGGAACTGTACAAT,1.47 z-score,1.46 z-score,1.14 z-score
AAAAAAAGGACCTGGCTAGA,-0.268 z-score,-0.407 z-score,-0.226 z-score
AAAAAAGGGAAATGACACCA,4.34 z-score,3.99 z-score,1.85 z-score
CAAAAGAGGAACTGATGCGG,6.77 z-score,6.93 z-score,2.5 z-score
GCCATGGGGAAGTGGGGCTG,3.5 z-score,4.15 z-score,1.41 z-score
AAAAAGGGGAAGTGACTTTC,8.66 z-score,7.69 z-score,4.47 z-score
CAAAAGAGGAAGTCAAGCTG,7.88 z-score,7.38 z-score,4.12 z-score
CTAAAGAGGAACTGTCTGAA,4.65 z-score,5.01 z-score,1.68 z-score
TAGAGGAGGAAGTGCAAACC,3.94 z-score,4.33 z-score,2.68 z-score
CGAAAGGGGAAGTGCCAAAC,6.72 z-score,7.08 z-score,3.34 z-score
CAGTAAGGGAAGTGCCCTCG,2.4 z-score,2.66 z-score,1.32 z-score
AAAAAGAGGAAGTGATGATG,9.07 z-score,7.66 z-score,5 z-score
GAAAAAGGGAAGTGGATGCT,7.27 z-score,6.99 z-score,3.43 z-score
AAAAAGAGGAAGTGGTACAA,8.76 z-score,7.42 z-score,4.35 z-score

Sequence,binding signal (PU.1 (IVT)),binding signal [1],binding signal [2]
ACATTCAGGAAGTGAAGTCA,3.49 z-score,3.38 z-score,3.99 z-score
GATAAGAGGAAGTCCTTTGT,6.16 z-score,6.5 z-score,3.02 z-score
CAAATAAGGAAGTGACAACA,5.99 z-score,6.65 z-score,2.75 z-score
ATAAAAAGGAACTGGCTAGA,2.46 z-score,2.5 z-score,0.731 z-score
CAAAAAGGGAAGTGGGGAGA,6.4 z-score,6.48 z-score,2.49 z-score
GAAAAGAGGAAATGGGGTGG,5.39 z-score,6.13 z-score,3.05 z-score
GGAAAGAGGAACTGGAATTG,6.28 z-score,6.85 z-score,2.28 z-score
TAGAAGAGGAAGAGAGAAGT,3.35 z-score,3.59 z-score,1.18 z-score
GAAAACAGGAAGTCCCATGG,7.18 z-score,7.08 z-score,4.74 z-score
AGGAACAGGAAGTGAATATA,5.87 z-score,6.09 z-score,5.1 z-score
CAATACAGGAAGTGGCCAAA,4.62 z-score,5.2 z-score,4.85 z-score
TGAAACAGGAAGTCTGACAG,5.54 z-score,6.27 z-score,4.33 z-score
AAAAAGGGGAAGTGGGTACC,7.97 z-score,7.32 z-score,3.63 z-score
GATCAGAGGAAGTCCTCTGT,2.58 z-score,2.59 z-score,2.09 z-score
TTGGGGAGGAAGTGAGTGCC,3.42 z-score,3.24 z-score,2.94 z-score
CAAGAGGGGAAGTGACAAGC,4.22 z-score,4.12 z-score,2.11 z-score
ACAATGGGGAAGTGGCACTC,5.32 z-score,5.93 z-score,2.32 z-score
CAAATGAGGAACCGATGCGG,4.69 z-score,5.43 z-score,0.985 z-score
GAATAGAGGAAGTGGGGCCG,5.54 z-score,6.65 z-score,2.95 z-score
